About 110 (5.5%) of roughly 2,000 compounds showed an effect of 50% or more. The list shows a part of the results.

The target in this test is Genome polyprotein (dengue virus type 2) (UniProt P29990).
The mark [1] stands for this setting: Thailand/16681/1984, Concentration 25.0 uM, Number of replicates 1.0.

For `O=Cc1ccc(N2CCC(C(=O)NCC(=O)c3ccccc3F)CC2)cc1`, under setting [1], the inhibition worked out at 12.6%.

For `O=Cc1ccc(N2CCC(C(=O)Nc3cc(C(F)(F)F)ccc3N3CCCC3)CC2)cc1`, the inhibition under setting [1] is -2.44%.

On to `CN(C)Cc1cc(C(=O)Nc2cc(Cl)cc(C(=O)NC(C)(C)CO)c2)ccn1`, for which the inhibition by setting is: (Thailand/16681/1984, Concentration 49.5 uM, Number of replicates 2.0, Standard deviation 0.8373879793632091 %) -0.805%; (Thailand/16681/1984, Concentration 99.01 uM, Number of replicates 2.0, Standard deviation 1.3878191722501325 %) -0.768%; (Thailand/16681/1984, Concentration 198.0 uM, Number of replicates 2.0, Standard deviation 1.150645337077672 %) -0.077%.

For `O=Cc1ccc(N2CCC(C(=O)NCCC3CCN(Cc4ccccc4)CC3)CC2)cc1`, under setting [1], the inhibition came to 12.2%.

With `Cc1cc(CO)c2cccc(NC(=O)C[C@H]3CCCN3)c2n1`, the inhibition by setting is: (Thailand/16681/1984, Concentration 49.95 uM, Number of replicates 2.0, Standard deviation 1.87682580099837 %) 7.72%; (Thailand/16681/1984, Concentration 99.9 uM, Number of replicates 2.0, Standard deviation 2.520000533440925 %) 13.9%.

`O=Cc1ccc(N2CCC(C(=O)N3CCC(Oc4cnccn4)CC3)CC2)cc1`: the inhibition under setting [1] was 14.7%.

As for `CN(C)CCCN(CCCN(C)C)C(=O)C1CCN(c2ccc(C=O)cc2)CC1`, the inhibition under setting [1] is 2.41%.

In the case of `CCn1ccnc(N2CC[C@@H](CO)C2)c1=O`, the inhibition was found to be 8.04% (Thailand/16681/1984, Concentration 49.5 uM, Number of replicates 2.0, Standard deviation 0.40547257598729775 %); 15.5% (Thailand/16681/1984, Concentration 99.01 uM, Number of replicates 2.0, Standard deviation 0.38043701079703857 %); 28.5% (Thailand/16681/1984, Concentration 198.0 uM, Number of replicates 2.0, Standard deviation 0.16218916526483432 %).

For the molecule `Cc1cc(CO)c2cccc(NC(=O)CCC3CCNCC3)c2n1`, the inhibition worked out at 99.7% (Thailand/16681/1984, Concentration 49.95 uM, Number of replicates 2.0, Standard deviation 0.01891415691253689 %) and 99.6% (Thailand/16681/1984, Concentration 99.9 uM, Number of replicates 2.0, Standard deviation 0.03175377284289565 %).

`CN(C)C[C@H](O)CN1CCN(C(=O)C2CCN(c3ccc(C=O)cc3)CC2)CC1`: the inhibition under setting [1] was determined as 8%.

As for `CN(Cc1nc2ccccc2[nH]1)C(=O)c1cc2c(ccn2C)[nH]1`, the inhibition is -0.57% (Thailand/16681/1984, Concentration 49.5 uM, Number of replicates 2.0, Standard deviation 1.6359874553985692 %); 1.32% (Thailand/16681/1984, Concentration 99.01 uM, Number of replicates 2.0, Standard deviation 2.1176510600017084 %); 2.67% (Thailand/16681/1984, Concentration 198.0 uM, Number of replicates 2.0, Standard deviation 2.126459055917485 %).

Regarding `O=Cc1ccc(N2CCC(C(=O)Nc3cnc(Br)cn3)CC2)cc1`, the inhibition under setting [1] was determined as 12.3%.

With `Cc1nn(Cc2nnc(C(C)C)o2)cc1C1CCNCC1`, the inhibition is -1.09% (Thailand/16681/1984, Concentration 49.5 uM, Number of replicates 2.0, Standard deviation 1.2271984598057826 %); -1.28% (Thailand/16681/1984, Concentration 99.01 uM, Number of replicates 2.0, Standard deviation 0.3137269789739955 %); -1.14% (Thailand/16681/1984, Concentration 198.0 uM, Number of replicates 2.0, Standard deviation 0.585185347191749 %).

Regarding `COc1cc(Cc2cccc(OC)c2F)nc(N2CCNCC2)n1`, the inhibition reads like this: (Thailand/16681/1984, Concentration 49.5 uM, Number of replicates 2.0, Standard deviation 0.9629879376124778 %) -0.82%; (Thailand/16681/1984, Concentration 99.01 uM, Number of replicates 2.0, Standard deviation 1.9852846675683946 %) 1.04%; (Thailand/16681/1984, Concentration 198.0 uM, Number of replicates 2.0, Standard deviation 1.5415090145809722 %) 1.86%.

Take `O=Cc1ccc(N2CCC(C(=O)NCCc3c(F)cccc3Cl)CC2)cc1`: under setting [1], the inhibition amounted to 13.3%.

Take `O=Cc1ccc(N2CCC(C(=O)Nc3cccc(C(F)(F)F)c3F)CC2)cc1`: the inhibition under setting [1] is 12.1%.

Turning to `c1ccc2c(CN3CCCCC3)c[nH]c2c1`, the inhibition by setting is: (Thailand/16681/1984, Concentration 49.5 uM, Number of replicates 2.0, Standard deviation 0.6434272763588318 %) -4.49%; (Thailand/16681/1984, Concentration 99.01 uM, Number of replicates 2.0, Standard deviation 1.2530364272347043 %) -2.99%; (Thailand/16681/1984, Concentration 198.0 uM, Number of replicates 2.0, Standard deviation 1.3117724439068803 %) -1.23%.

On to `O=Cc1ccc(N2CCC(C(=O)NCC3(c4ccccc4F)CCCC3)CC2)cc1`, for which, under setting [1], the inhibition worked out at 0.197%.

For `NC(=O)[C@H](Cc1ccc(O)cc1)NC(=O)C1CCN(c2ccc(C=O)cc2)CC1`, the inhibition under setting [1] turned out to be 14%.

As for `OB(O)c1cccc(-c2noc(Cn3cnc4c3CCCC4)n2)c1`, the inhibition was 6.31% (Thailand/16681/1984, Concentration 49.5 uM, Number of replicates 2.0, Standard deviation 17.807835519429947 %); -7.68% (Thailand/16681/1984, Concentration 99.01 uM, Number of replicates 2.0, Standard deviation 4.767493705751508 %); -1.69% (Thailand/16681/1984, Concentration 198.0 uM, Number of replicates 2.0, Standard deviation 0.9544911645628179 %).

For the molecule `COc1cc(Cc2ccnc(N3CCNCC3)c2)nc(N2CCNCC2)n1`, the inhibition was -0.683% (Thailand/16681/1984, Concentration 49.5 uM, Number of replicates 2.0, Standard deviation 0.5475245881629303 %); -0.3% (Thailand/16681/1984, Concentration 99.01 uM, Number of replicates 2.0, Standard deviation 0.6079373329094152 %); 1.2% (Thailand/16681/1984, Concentration 198.0 uM, Number of replicates 2.0, Standard deviation 0.08599297366005029 %).

As for `O=Cc1ccc(N2CCC(C(=O)NCCNC(=O)c3ccccc3Cl)CC2)cc1`, the inhibition under setting [1] worked out at 13.9%.

Take `Cc1nn([C@@H](C)c2nnnn2C2CC2)cc1C1CCNCC1`: the inhibition was -0.77% (Thailand/16681/1984, Concentration 49.5 uM, Number of replicates 2.0, Standard deviation 0.5100215426412393 %); -0.407% (Thailand/16681/1984, Concentration 99.01 uM, Number of replicates 2.0, Standard deviation 0.6373004179667614 %); 0.423% (Thailand/16681/1984, Concentration 198.0 uM, Number of replicates 2.0, Standard deviation 0.7686558471157346 %).
